# Experimental data: PubChem BioAssay AID504845 (National Center for Advancing Translational Sciences (NCATS), 2011)
# Among all 390,000 compounds or so, about 150 (0.038%) were called active. Inconclusive results, whose numbers are uncertain, are shown with a selection of clear calls. The call rests on the fitted dose curve; in most records, active means well fitted inhibition curve with a large enough effect; inconclusive means small, poorly fitted or top-dose-only effect; inactive means no such curve, though single readings can be large or run the other way. Potencies beside an inconclusive call are fits to weak or partial responses and may not hold up.
# Molecular target: Regulator of G-protein signaling 4 (Homo sapiens) (UniProt P49798)
# Sequence of UniProt P49798 (P49798 whole entry, looked up): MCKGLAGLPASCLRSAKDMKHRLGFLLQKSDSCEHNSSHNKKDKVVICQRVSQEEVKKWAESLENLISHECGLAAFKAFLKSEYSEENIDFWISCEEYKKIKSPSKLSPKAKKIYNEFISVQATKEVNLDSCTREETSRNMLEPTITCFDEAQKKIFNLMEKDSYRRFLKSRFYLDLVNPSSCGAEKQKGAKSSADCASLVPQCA
# Assay: Inhibitors of Regulator of G Protein Signaling (RGS) 4: qHTS; further: nearly all actives have a fitted effect of over 75% in size
# Settings: Transcreener GDP fluorescence polarization, RGS4-accelerated GTP hydrolysis; series mostly up to 114 µM
# Procedure, shortened: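 MLSMR compounds (23 nl, pin-transferred) preincubated 10 min at room temperature with a 500nM (2x) first reagent, then RGS4 at 900nM (2x) plus Transcreener GDP mix added; fluorescence polarization (620/688 nm) read before and after 90 min at 30 °C.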
# Potency means the concentration at half of the fitted maximal effect; tags describe the fitted curve by direction and shape.
row,SMILES,Potency
1,CCOc1ccc(C(=O)NCC(=O)NCC(c2ccc(OC)cc2)N2CCCC2)cc1 (configuration not stated),"inconclusive: 100 µM [inhibitor, single point]"
2,O=C(CNC(=O)c1ccccc1O)N/N=C/c1cc(Br)ccc1OC(=O)/C=C/c1ccco1,"inconclusive: 70.8 µM [inhibitor, single point]"
3,COc1cc(-c2nn3c(COc4ccccc4)nnc3s2)cc(OC)c1OC,"inconclusive: 79.4 µM [inhibitor, partial curve, poor fit]"
4,Cc1ccc(C(=O)C2CCN(CC(=O)Nc3ccc(N(C)C)cc3)CC2)cc1,inactive
5,O=C(NCCCN1CCN(CCCNC(=O)c2cccc([N+](=O)[O-])c2)CC1)c1cccc([N+](=O)[O-])c1,inactive
6,CCCCn1c(N)c(N(CCOC)C(=O)CN2c3ccccc3CC2C)c(=O)[nH]c1=O (configuration not stated),"inconclusive: 79.4 µM [inhibitor, partial curve, poor fit]"
7,CCCCn1c(-c2ccc(F)c(F)c2)nc2cc3[nH]c(=O)c(C(C)C)nc3cc21,inactive
8,COc1ccc(C(C)=O)cc1CSc1nc(NCc2ccccc2)c2ccccc2n1,"inconclusive: 89.1 µM [inhibitor, single point]"
9,CCCc1nnc(NC(=O)CN2C(=O)C3C4C=CC(C4)C3C2=O)s1 (configuration not stated),"inconclusive: 100 µM [inhibitor, single point]"
10,CC1CCN(C(=O)Nc2ccc3nc(-c4ccco4)c(-c4ccco4)nc3c2)CC1,"inconclusive: 17.8 µM [inhibitor, full curve, poor fit]"
11,OCCN1CCN(c2ncnc3ccc(Br)cc23)CC1,inactive
12,O=C(Nc1cccc(NC(=O)c2cc([N+](=O)[O-])ccc2Cl)n1)c1cc([N+](=O)[O-])ccc1Cl,inactive
13,CCN(C(=O)c1cccn(Cc2cccc(Cl)c2)c1=O)c1ccccc1,inactive
14,COC(=O)CN1C(=O)C(O)(CC(=O)c2ccc(Cl)cc2)c2ccccc21 (configuration not stated),"inconclusive: 79.4 µM [inhibitor, single point]"
15,N#CC1=C(N)NC(SCC(=O)Nc2ccc(Br)cc2)=C(C#N)C12CCCCC2,inactive
16,O=C(NC(=S)Nc1ccc(N2CCCCC2)cc1)c1cccs1,"inconclusive: 50.1 µM [inhibitor, partial curve, poor fit]"
17,Cc1cccc(N2CCN(C(=O)Cc3ccc(Br)cc3)CC2)c1C,"inconclusive: 50.1 µM [inhibitor, partial curve, poor fit]"
18,COc1ccc2c(c1)SCC/C2=C\CN1C(=O)CCC1=O,"inconclusive: 89.1 µM [inhibitor, single point]"
19,CCOCc1[nH]c(=S)[nH]c(=O)c1Cc1ccc(OCC)cc1,"inconclusive: 79.4 µM [inhibitor, partial curve, poor fit]"
20,CC(C)c1ccc(CNCCSc2nnnn2-c2ccccc2)cc1,inactive
21,Cc1cc(C)c2c(N)c(C(=O)N/N=C/c3cccs3)sc2n1,inactive

row,SMILES,Potency
1,CS(=O)(=O)N1CCN(C(=O)c2cc(-c3cccnc3)nc3ccc(Br)cc23)CC1,"inconclusive: 50.1 µM [inhibitor, partial curve, poor fit]"
2,COC(=O)[C@]1(C)N[C@H](CN(C)S(=O)(=O)c2ccc(-c3ccccc3)cc2)[C@@H]2C(=O)N(Cc3ccccc3)C(=O)[C@@H]21,inactive
3,COc1cc(/C=C2/NC(=O)N(CC(=O)Nc3cccc(C)c3)C2=O)ccc1OCC(N)=O,"inconclusive: 35.5 µM [inhibitor, full curve, poor fit]"
4,C=CCn1c(SCC(=O)NCCCC)nc2scc(-c3ccco3)c2c1=O,"inconclusive: 44.7 µM [inhibitor, partial curve, poor fit]"
5,CCc1cccc(N(C(=O)c2csnn2)C(C(=O)NC(C)(C)C)c2ccncc2)c1 (configuration not stated),"inconclusive: 56.2 µM [inhibitor, partial curve, poor fit]"
6,COc1ccc(CN(C(=O)/C=C/c2ccco2)C2CCS(=O)(=O)C2)cc1 (configuration not stated),"inconclusive: 17.8 µM [inhibitor, partial curve, poor fit]"
7,CC1=C(C)CC(C(=O)Nc2nc(C)cs2)C(C(=O)O)C1 (configuration not stated),inactive
8,N=c1c2c(n(Cc3ccc([N+](=O)[O-])cc3)c3c1CCC3)CCCC2,"inconclusive: 44.7 µM [inhibitor, partial curve, poor fit]"
9,CN(C)C(=O)CSc1nc(SCC(=O)N(C)C)n(-c2ccccc2)n1,"inconclusive: 89.1 µM [inhibitor, single point]"
10,COc1ccc(OCc2cc(C(=O)N(C)CC3CCCCO3)no2)c(Cl)c1 (configuration not stated),"inconclusive: 79.4 µM [inhibitor, single point]"
11,CCCC(=O)Nc1nc(C)c(-c2csc(Nc3ccccc3C)n2)s1,"inconclusive: 28.2 µM [inhibitor, full curve, poor fit]"
12,Cc1cc2c(c(SCC(N)=O)n1)C(=O)OC2,inactive
13,Cc1cc(C)cc(N2C(=O)C=CC2=O)c1,"inconclusive: 28.2 µM [inhibitor, full curve, poor fit]"
14,Cc1ccccc1N(CC(=O)NC1CCCC1)C(=O)C1(C)CC(=O)N=C2C=CC=CN21 (configuration not stated),"inconclusive: 56.2 µM [inhibitor, partial curve, poor fit]"
15,CC(=O)c1sc2nsc(SCCN3CCOCC3)c2c1N,"inconclusive: 100 µM [inhibitor, single point]"
16,Cc1ccc(Cl)cc1NC(=O)C(C)n1nnc2sc(-c3ccccc3)cc2c1=O (configuration not stated),"inconclusive: 17.8 µM [inhibitor, full curve, poor fit]"
17,COc1cccc(CNC(=O)CCc2cn(Cc3ccccc3Cl)c3ccccc23)c1,inactive
18,Cc1nn(-c2ccccc2)c(OC(=O)C(C)C)c1Sc1ccccc1,"inconclusive: 79.4 µM [inhibitor, partial curve, poor fit]"
19,CCSc1nnc2ccc(-c3ccc(OC)c(OC)c3)nn12,"inconclusive: 50.1 µM [inhibitor, partial curve, poor fit]"
20,Cc1ccc(SCCN2CCN(Cc3ccccc3)CC2)cc1,inactive
21,CCN(CCCNC(=O)c1ccc2c(c1)NC(=O)CN2C)c1cccc(C)c1,"inconclusive: 50.1 µM [inhibitor, partial curve, poor fit]"
